Screen size: about 43,000 compounds; about 200 (0.47%) were called active. Another 12% or so got no clear call; they are omitted. Calls follow the shape of the dose curve; as a rule, active = well fitted cell-killing curve with a large enough effect; inconclusive = small, poorly fitted or top-dose-only effect, or effect the other way; inactive = flat fitted curve, though single readings scatter. The list shows a part of the results.
Test: Cell viability qHTS assay in S16 Pmp22-F2sN cells; also: nearly all actives have a fitted effect of over 65% in size
Settings: S16 Pmp22-F2sN Schwann cells (luciferase reporters placed in the Pmp22 gene) viability, CellTiter-Glo, 24 h; series mostly up to 57.5 µM; activity change, negative = cytotoxicity: at the top concentration
Procedure, shortened: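 Rat S16 Schwann reporter line, 24 h treatment with library compounds delivered at 23 nL per well. Cell viability by CellTiter-Glo luminescence.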
% is scaled to controls: 0 for no effect and ±100 for the full control effect.

Structure (SMILES) | activity change, negative = cytotoxicity
CCCSc1nc2sc3c(c2c(=O)n1-c1cccc(Br)c1)CC(C)(C)OC3 | inactive: 4.13%
CCOC(=O)c1c(C)[nH]c(C)c1S(=O)(=O)N1CCC(C(=O)Nc2ccc(C)c(Cl)c2)CC1 | inactive: 5.35%
CC(=O)Nc1ccc(Nc2ncnc3c2c(-c2ccccc2)cn3-c2ccc(C)c(Cl)c2)cc1 | inactive: -4.49%
Cc1c(NC(=O)c2ccc(Br)o2)cccc1-c1nc2ccccc2o1 | inactive: -4.02%
Cc1cccc(C)c1NC(=O)CCS(=O)(=O)c1cccc2nonc12 | inactive: -6.74%
CCOc1ccccc1NC(=O)c1cc2c(=O)n(Cc3cccnc3)ccc2nc1C | inactive: -2.9%
CCOC(=O)c1ccc(NC2=CC(c3ccc(F)cc3)N(c3ccc(C(=O)OCC)cc3)C2=O)cc1 (stereo not drawn) | inactive: 18.7%
COc1ccc(NC(=O)N2CCN3CCCCC3C2)cc1OC (stereo not drawn) | inactive: -1.28%
COc1cc(C2NC(=O)c3c(sc4c3CCN(C)C4)N2)ccc1OC(=O)c1ccccc1 (stereo not drawn) | inactive: -21.5%
COc1ccccc1CNC(=O)CCNS(=O)(=O)c1cccc2nsnc12 | inactive: 2.59%
Cc1nc2c(c(C)nn2-c2ccccc2)c(C)c1CCC(=O)NCCc1ccc(Cl)cc1 | inactive: 2.86%
COc1cccc(NC(=O)N2CCN(C(=O)c3nsc4ccccc34)CC2)c1 | inactive: 0.57%
Fc1ccc(N2CCN(Cc3cccn3-c3nnc(N4CCN(C5CCCCC5)CC4)s3)CC2)cc1 | inactive: 3.38%
CCOC(=O)c1cc(-c2ccccc2)n(-c2cccc(C(=O)N(C)c3ccc(C)cc3)c2)c1C | inactive: 3.11%
CCc1ccccc1NC(=O)c1cc2c(Cl)nc3ccccc3c2s1 | inactive: 16.1%
Cc1ccc(NC(=O)C2CCCN(c3cnccn3)C2)c(C)c1 (stereo not drawn) | inactive: 0.58%
COc1ccc(CNC(=O)C2=C(C)C(=O)OC23CCN(C(C)=O)CC3)cc1 | inactive: -3.6%
CCCCOc1ccccc1C(=O)Nc1onc2c1CCCC2 | inactive: 5.18%
CC1CCN(c2oc(-c3ccc(COc4ccc(Cl)cc4)o3)nc2C#N)CC1 | inactive: -0.954%
COc1ccc(CCNC(=O)CCCn2c(SCC(N)=O)nc3cc4c(cc3c2=O)OCO4)cc1OC | inactive: -10.5%
CCOC(=O)N1CCc2c(sc3c2c(=O)n(Cc2ccccc2)c(=O)n3Cc2ccc(C)cc2)C1 | inactive: 0.87%
CC(C)OC(=O)/C(C#N)=C/c1ccc(-c2ccc(Cl)c(Cl)c2)o1 | inactive: -0.892%
CCOc1ccccc1CNC(=O)c1ccc(Cn2c(SCc3ccccc3)nc3cccnc32)cc1 | inactive: -11.2%
Cc1cc(C)c2nc(NC(=O)c3ccc(S(=O)(=O)N4CCC(C)CC4)cc3)sc2c1 | inactive: -6.32%

Structure (SMILES) | activity change, negative = cytotoxicity
CCOC(=O)c1cnc2ccc(Cl)cc2c1Nc1ccc(OCC)cc1 | inactive: 10.6%
CCOC(=O)c1ccc(NC(=O)CC2C(=O)N(c3ccc(F)cc3)C(=O)N2Cc2ccc(C)cc2)cc1 (stereo not drawn) | inactive: -27.5%
Cc1cccn2c(=O)cc(COc3cccc(NC(=O)COc4ccccc4)c3)nc12 | inactive: -9.77%
COc1cccc(-c2nc3c(c(SCC(=O)Nc4cc(C)ccc4C)n2)Cc2c(CO)cnc(C)c2O3)c1 | inactive: 16.4%
CC(=O)c1ccc(NC(=O)CCc2nc(-c3ccc(C)cc3)no2)cc1 | inactive: -13.9%
Cc1nc(-n2nc(C)c(CCC(C)C)c2C)sc1C(=O)Nc1ccc(Br)cc1 | inactive: -0.4%
Cc1cc(C)c2sc(N3CCN(C(=O)C4CC4)CC3)nc2c1 | inactive: -19.8%
CSc1ccc(CCNc2ncnc3onc(-c4ccc(Cl)cc4)c23)cc1 | inactive: -20.3%
Cc1nc2nc(SCC(=O)N(Cc3ccccc3)C(C)C)nn2c(C)c1Cc1ccccc1Cl | inactive: -20.8%
COC(=O)c1cc2occc2n1Cc1nc(-c2cccc(Br)c2)oc1C | inactive: 7.42%
COc1ccc(C(=O)c2sc(Nc3cc(Cl)ccc3C)nc2N)cc1OC | inactive: 29.5%
CCc1ccc2ncc3c(-c4ccc(C)cc4)nn(CC(=O)Nc4ccc(C)cc4)c3c2c1 | inactive: 0.245%
COc1ccc(Oc2nc3c(C)cccn3c(=O)c2/C=C(\C#N)c2nc3ccccc3[nH]2)cc1 | inactive: -2.95%
Cc1cc(C)c(NC(=O)Cn2c(=O)n(-c3ccc(F)cc3)c(=O)c3c(C)c(C(=O)N(C)C)sc32)c(C)c1 | inactive: 7.34%
COc1ccc(-n2c(=O)c3ccc(C(=O)NCc4ccc(C)cc4)cc3n(Cc3ccc(C)cc3)c2=O)cc1 | inactive: 5.23%
Cc1ccccc1CNCCSc1nnnn1-c1ccccc1 | inactive: -6.6%
Cc1ccc2c(c1)N(CC(=O)NCCCN1CCCCC1C)C(=O)c1cccnc1O2 (stereo not drawn) | inactive: 17%
Cc1ccc2c(c1)N(S(=O)(=O)c1ccc3c(c1)NC(=O)CC(=O)N3)CCO2 | inactive: 1.26%
Cc1ccc(-n2nc3c(=O)n(CC(=O)NCc4ccco4)nc(C)c3c2C)cc1 | inactive: -23.5%
Cc1ccc(CNC(=O)CN(c2cc(C)cc(C)c2)S(=O)(=O)c2c(C)noc2C)cc1 | inactive: -1.82%
Cc1nc2cc(-c3ccccc3)nn2c(C)c1CCC(=O)NCc1cccc(Cl)c1 | inactive: -14.4%
COc1cc2[nH]c(=O)n(CCCCCC(=O)N3CCN(c4ccc(Cl)cc4)CC3)c(=O)c2cc1OC | inactive: -0.0709%
Cc1cccc(Cn2c(=O)n(CC3CCC(C(=O)N4CCC(C)CC4)CC3)c(=O)c3sccc32)c1 (stereo not drawn) | inactive: -1.57%
O=C(CSc1cn(CC(=O)N2CCCC2)c2ccccc12)Nc1ccccc1C(F)(F)F | inactive: -2.04%
